# The list shows a part of the results. Values were computed here from the reads of four pooled replicates and scatter widely.
# Biological target: T1, Pho4 (S. cerevisiae) (UniProt P07270)
# T1 sequence: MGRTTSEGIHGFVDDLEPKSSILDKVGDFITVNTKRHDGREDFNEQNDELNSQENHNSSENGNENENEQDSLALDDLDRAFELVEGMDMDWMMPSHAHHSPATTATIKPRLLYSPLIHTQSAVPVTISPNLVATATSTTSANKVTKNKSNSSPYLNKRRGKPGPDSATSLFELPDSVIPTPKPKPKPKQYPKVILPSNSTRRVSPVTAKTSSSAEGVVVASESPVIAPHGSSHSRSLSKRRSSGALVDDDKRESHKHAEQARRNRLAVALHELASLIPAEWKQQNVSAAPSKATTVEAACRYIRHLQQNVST
# Assay: relative binding free energy (BET-seq); higher = weaker binding
# Settings: reference: library average
row,Sequence,relative binding free energy
1,TGGCACACGTGTTTAT,0.03 kcal/mol
2,GGTTGCACGTGCTCGT,0.11 kcal/mol
3,GGCTGCACGTGCTGTT,-0.02 kcal/mol
4,TATGGCACGTGTGAAT,0.06 kcal/mol
5,TGGGACACGTGTTGAT,0.16 kcal/mol
6,GGCCTCACGTGGAGGG,0.2 kcal/mol
7,CGGTTCACGTGATTAA,0.4 kcal/mol
8,GATAACACGTGAGTTG,0.24 kcal/mol
9,CTATGCACGTGACGGG,0.02 kcal/mol
10,TTTGTCACGTGAGTCG,0.26 kcal/mol
11,CGTGTCACGTGGTGGA,0.02 kcal/mol
12,ATAGCCACGTGTGGTA,-0.05 kcal/mol
13,TTATACACGTGATGGA,0.16 kcal/mol
14,GTGGGCACGTGTCAGG,0.03 kcal/mol
15,AGTAACACGTGTTGGA,0.02 kcal/mol
16,AAATGCACGTGCAGGT,0.07 kcal/mol
17,TTCAGCACGTGAGTAT,0.36 kcal/mol
18,GTTTACACGTGGGGCG,0.02 kcal/mol
19,TGGGCCACGTGGTAGT,-0.11 kcal/mol
20,ACTTACACGTGTTTGG,0.08 kcal/mol
21,GGGCACACGTGTTTGT,-0.05 kcal/mol
22,GTAGTCACGTGGTGAG,0.06 kcal/mol
23,GCGGACACGTGATGGT,0.13 kcal/mol
24,GAGTACACGTGTCTGT,0.14 kcal/mol
25,GTAATCACGTGTGTGT,0.17 kcal/mol

row,Sequence,relative binding free energy
1,AGGATCACGTGTTACG,0.24 kcal/mol
2,TGATACACGTGCGTGT,-0.07 kcal/mol
3,TTTGCCACGTGGGCGT,-0.32 kcal/mol
4,TGTTTCACGTGGCGGA,0.16 kcal/mol
5,AGGGACACGTGGGCGA,-0.17 kcal/mol
6,ATTGGCACGTGGTATC,-0.07 kcal/mol
7,GGTGGCACGTGTCGAA,-0.05 kcal/mol
8,TGTCGCACGTGTGGAC,0.03 kcal/mol
9,GCAGTCACGTGGAGGC,0.33 kcal/mol
10,TTTAGCACGTGCTCGG,-0.16 kcal/mol
11,GAGAGCACGTGATGTT,-0.07 kcal/mol
12,GGCGGCACGTGTCGTA,0.02 kcal/mol
13,ACAGTCACGTGTTTTG,0.11 kcal/mol
14,TTAGGCACGTGGGATT,-0.08 kcal/mol
15,TATTTCACGTGGTGAT,0.3 kcal/mol
16,AGTGTCACGTGTGGGG,0.06 kcal/mol
17,CAGGTCACGTGTTAAT,0.19 kcal/mol
18,TCAGACACGTGGGAGG,-0.07 kcal/mol
19,TTTGGCACGTGCACGG,-0.14 kcal/mol
20,CCTATCACGTGGGTGG,0.09 kcal/mol
21,GTGGGCACGTGTCAAT,-0.09 kcal/mol
22,AGATTCACGTGTTCGT,0.29 kcal/mol
23,GAAGTCACGTGAAAGG,0.28 kcal/mol
24,TATATCACGTGTAGCG,0.12 kcal/mol
25,ATTTTCACGTGGGGTT,0.19 kcal/mol

row,Sequence,relative binding free energy
1,ATTAGCACGTGATTTG,0.19 kcal/mol
2,ATGGGCACGTGGCGAA,-0.26 kcal/mol
3,GTGTTCACGTGCTGTA,0.2 kcal/mol
4,CGGAGCACGTGGGTGA,-0.15 kcal/mol
5,TTGAGCACGTGTTGAA,0.01 kcal/mol
6,GGTTACACGTGTTGCT,0.18 kcal/mol
7,ATAATCACGTGGGGAT,-0.04 kcal/mol
8,GTAGGCACGTGCGGTA,-0.04 kcal/mol
9,ACTGGCACGTGGTGAG,-0.07 kcal/mol
10,CTGGGCACGTGTCTGG,-0.18 kcal/mol
11,TTAGTCACGTGTTAGG,0.17 kcal/mol
12,GAGTACACGTGGCGGG,0.03 kcal/mol
13,AGGAACACGTGGAGGG,-0.02 kcal/mol
14,AGGGTCACGTGTTTTC,0.1 kcal/mol
15,TGTATCACGTGGGTTA,-0.11 kcal/mol
16,GGAGTCACGTGAGTGA,0.46 kcal/mol
17,TCGGGCACGTGTCGGA,-0.05 kcal/mol
18,TCTATCACGTGGGTGT,0.09 kcal/mol
19,GGTTGCACGTGTGACT,0.01 kcal/mol
20,GATAACACGTGGGTTT,0.06 kcal/mol
21,CTTGACACGTGGTTAT,0.01 kcal/mol
22,ACGGTCACGTGGTGGT,0.09 kcal/mol
23,CAGGTCACGTGGACGG,0.11 kcal/mol
